Measurements as given in PubChem BioAssay (NCI).
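Growth conditions: 96-well plates. Treatment: test compound, 48 hours, 5 concentrations. Analysis: linear interpolation between bracketing concentrations; unreached endpoints set to highest concentration. GI50 is the concentration that inhibits growth by half. TGI denotes the concentration required for complete inhibition of growth.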 Square brackets hold non-standard residues; d marks the D form. Peptide text beside a SMILES is read from it. * marks the point of attachment. NMeV = CN[C@H](C(=O)O)C(C)C; X25 = COc1ccc(CN*)c(OC)c1; Octanoyl = CCCCCCCC(=O)*; dNMeA = CN[C@H](C)C(=O)O

Test system: NCI-H322M lung
Test: NCI-60 cell line screen, 48 h

`Cc1cc(S(=O)(=O)Nc2nc3ccccc3nc2-c2cccc([N+](=O)[O-])c2)c(S)cc1Cl` was tested. Which TGI did it give?
Its TGI is 40.1 µM.

With `CC1(C)OC(=O)C(C#N)=C1/C=C/c1coc2ccc(Cl)cc2c1=O` as the compound, how does the TGI read?
The TGI was over 100 µM.

For `CC1(C)C=Cc2c(cc(O)c3c(=O)c4cc(Cl)ccc4[nH]c23)O1`, which TGI is on record?
The TGI was over 10 µM.

How did the TGI turn out when `COc1ccc(-c2cc(Cc3cccs3)c(=O)[nH]n2)cc1` was run?
Its TGI is over 100 µM.

How did the TGI turn out when `CCCCCCCC(=O)N[C@H](C(=O)N[C@H](C(=O)N(C)[C@H](C(=O)N1CCC[C@H]1C(=O)N(C)[C@H](C)C(=O)NCc1ccc(OC)cc1OC)C(C)C)C(C)C)C(C)C` (Octanoyl-VV[NMeV]P[dNMeA]-X25) was run?
The TGI was over 100 µM.

Which TGI does the source give for `COCc1nc(N)nc(N2N=C(C)CC2(C)C)n1` here?
Its TGI is over 100 µM.

Which TGI does the source give for `N#Cc1sc2c(c1OC(=O)c1ccccc1)c(=O)n(-c1ccccc1)c(=S)n2-c1ccccc1` here?
The TGI was 86.4 µM.

With `Nc1n[n+](CC(=O)c2ccccc2)c2sc(-c3ccccc3)nn12` as the compound, how does the TGI read?
The TGI was 89.4 µM.

How did the TGI turn out when `CCN1C(=O)c2cc(OC)c(OC)cc2C(=O)C12OC(=O)c1cc3c(cc12)OCO3` (stereo unspecified) was run?
The TGI was over 100 µM.

How did the TGI turn out when `O=C(O)c1ccc(C2COc3ccc(Cl)cc3C2)cc1` (stereo unspecified) was run?
Its TGI is over 100 µM.

Which TGI does the source give for `C[n+]1ccc(/C2=C3\C=CC(=N3)/C(c3cc[n+](C)cc3)=c3/cc/c([nH]3)=C(\c3cc[n+](C)cc3)C3=N/C(=C(/c4cc[n+](C)cc4)C4C=CC2N4)C=C3)cc1` here?
The TGI was over 100 µM.

Which TGI does the source give for `COC(=O)c1onc(-c2c(OC)cc(OC)cc2OC)c1C(=O)OC` here?
Its TGI is over 100 µM.

How did the GI50 turn out when `O=S(=O)(c1ccc(Cl)cc1)C(Cl)(Cl)Cl` was run?
Its GI50 is 14.7 µM.

What about the TGI of the same compound?
The TGI was 58.4 µM.

With `N#C[C@H](OC1OC(COC2OC(CO)C(O)C(O)C2O)C(O)C(O)C1O)c1ccccc1` (stereo partly specified) as the compound, how does the TGI read?
Its TGI is over 250 µM.

For `CCC(C=O)P1(=O)OC(C)(C)CN1C(C)(C)C` (stereo unspecified), which TGI is on record?
The TGI was over 100 µM.

How did the TGI turn out when `CCc1nn(CN2CCOCC2)c(=S)n1/N=C/c1ccc(-c2ccc(Cl)cc2)o1` was run?
The TGI was over 100 µM.

With `COc1ccc(-c2nc(Nc3cc(C)[nH]n3)c3ccccc3n2)cc1` as the compound, how does the GI50 read?
The GI50 was 3.21 µM.

And the TGI?
Its TGI is over 81.2 µM.

Which GI50 does the source give for `COc1ccc2cc1Oc1ccc(cc1)C[C@H]1c3c(cc4c(c3Oc3cc5c(cc3OC)CCN(C)[C@@H]5C2)OCO4)CCN1C` here?
The GI50 was 5.72 µM.

What about the TGI of the same compound?
Its TGI is 16.3 µM.

Which TGI does the source give for `OCCNCCN1CCN(CCCN2c3ccccc3Sc3ccc(C(F)(F)F)cc32)CC1` here?
Its TGI is 41.8 µM.

How did the TGI turn out when `CC(C)(C)OC(=O)NC(Cc1ccccc1)OCc1ccccc1` (stereo unspecified) was run?
The TGI was 44.1 µM.

How did the TGI turn out when `O=c1[nH]cc(-c2c[nH]c3ccccc23)nc1-c1c[nH]c2ccccc12` was run?
The TGI was 28.9 µM.

What does the source list for `COc1cccc(OC(=O)c2ccc(C(F)(F)F)nc2Nc2cc(Cl)ccc2C)c1`?
GI50: 21.4 µM; TGI: 95 µM

For `CS(=O)(=O)c1ccc(-c2cc(-c3ccc(S(C)(=O)=O)cc3)[n+](-c3cc(-c4ccc(S(C)(=O)=O)cc4)c([O-])c(-c4ccc(S(C)(=O)=O)cc4)c3)c(-c3ccc(S(C)(=O)=O)cc3)c2)cc1`, which TGI is on record?
Its TGI is over 100 µM.

With `CN[C@@H](C)C(=O)N[C@H](C(=O)N1CCC[C@H]1C(=O)Nc1sc(-c2ncco2)nc1-c1ccccc1)C1CCCCC1` as the compound, how does the GI50 read?
Its GI50 is 36.8 µM.

What about the TGI of the same compound?
Its TGI is over 100 µM.

Which results are given for `c1cnn2ncc(-c3ccnc(NCCCN4CCOCC4)n3)c2c1`?
GI50: 7.17 µM; TGI: > 25 µM

For `CN1c2ccccc2C(=O)NC12CCN(CCCC(=O)c1ccc(F)cc1)CC2`, which TGI is on record?
Its TGI is over 100 µM.

With `N#Cc1c(N2CCOCC2)nc(=S)[nH]c1-c1ccco1` as the compound, how does the GI50 read?
The GI50 was 11 µM.

And the TGI?
The TGI was over 100 µM.

For `O=C1C(=C([O-])c2ccccc2)C(=O)c2ccccc21.O=C1C(=C([O-])c2ccccc2)C(=O)c2ccccc21.[Fe+2]`, which GI50 is on record?
The GI50 was 77.4 µM.

And the TGI?
The TGI was over 100 µM.

With `CO/C(=N\N=C\c1ccc(OC)c(OC)c1)c1ccncc1` as the compound, how does the TGI read?
Its TGI is over 10 µM.

`COc1cc2c3c(n(C)c(=O)c2cc1OC)-c1cc2c(cc1/C3=C\CCCCN1C(=O)c3ccccc3C1=O)OCO2` was tested. Which GI50 did it give?
Its GI50 is 19.9 µM.

And the TGI?
Its TGI is 87.1 µM.

With `CCOC(=O)C1=C(C)N(c2ccc(Cl)cc2)[C@]2(C#N)C(O)=C(Cl)C(Cl)=C(O)[C@]12C#N` as the compound, how does the GI50 read?
The GI50 was over 100 µM.

What about the TGI of the same compound?
Its TGI is over 100 µM.

For `CCN(CC)CC1c2ccccc2C(CNc2ccccc2)N1C` (stereo unspecified), which TGI is on record?
The TGI was over 100 µM.

`NNC(=O)CS(=O)(=O)Nc1ncccn1` was tested. Which TGI did it give?
Its TGI is over 100 µM.

With `O=C1CCC(N2Cc3cc(CNC(=O)C(F)(F)c4ccc(Cl)cc4)ccc3C2=O)C(=O)N1` (stereo unspecified) as the compound, how does the GI50 read?
The GI50 was 3.26 µM.

What about the TGI of the same compound?
The TGI was over 100 µM.

How did the TGI turn out when `C#C[C@]1(O)CCCC2=CC(=O)CC[C@@]21C` was run?
The TGI was over 100 µM.

How did the TGI turn out when `COc1ccccc1-c1cc(=O)c2cc(C)cnc2[nH]1` was run?
The TGI was over 100 µM.

`CC1=NN(C(=O)c2ccncc2)C(=O)C1` was tested. Which TGI did it give?
Its TGI is over 100 µM.

Which GI50 does the source give for `O=c1[nH]c(=O)n(C2CC(O)C(COP(=O)(OCc3ccc([N+](=O)[O-])o3)N(CCCCCl)CC(O)CO)O2)cc1F` (stereo unspecified) here?
The GI50 was 2.03 µM.

And the TGI?
The TGI was over 100 µM.

How did the GI50 turn out when `O=C1c2c(c3c4ccccc4[nH]c3c3ccc4ccccc4c23)C(=O)N1CCN1CCNCC1` was run?
The GI50 was 1.54 µM.

What about the TGI of the same compound?
Its TGI is 2.94 µM.

Which TGI does the source give for `CC#CCC1CCC(OCC)=CC1=O` (stereo unspecified) here?
The TGI was over 100 µM.

How did the TGI turn out when `O=c1[nH]cc(COCCCO)c(=O)[nH]1` was run?
Its TGI is over 100 µM.

For `Fc1ccc(/C=N/n2c(-c3ccc(F)c(Cl)c3)nn(CNc3ccccc3C(F)(F)F)c2=S)cc1`, which GI50 is on record?
Its GI50 is 63.1 µM.

And the TGI?
The TGI was over 100 µM.
